Test results: the supplement of paper PMC10369915
The other results are listed elsewhere or left out. Cut-off read from the data, not from the text of the source: active = 3.2 or more and inactive = the rest. Most of these values are background signal.

molecular target: SHP2 C-SH2 domain E139D; experiment: enrichment score (SH2-bound / input frequency) (ratio); bacterial display of known human phosphotyrosine sites (pTyr-Var adds point mutants) read by sequencing; higher = stronger binding; tyrosines were phosphorylated by kinases first; conditions: peptide library: pTyr-Var
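Note: displayed peptides selected on beads carrying the immobilized SH2 domain, with library peptides lacking any tyrosine serving as negative controls.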

Row | Binder | enrichment score
1 | EAEALYQTKFQ [KRT73_Y325] | inactive: 0.74
2 | WFQTKYEELQV [KRT6B_Y360_I365V_YF] | inactive: 1.8
3 | TTGGFYSYGGG [KRT24_Y120_A115T] | inactive: 0.759
4 | WYQTKYEELQV [KRT6B_Y360_I365V] | inactive: 1.35
5 | KTTGGYAGGLS [KRT8_Y419_S417G] | inactive: 0.742
6 | RLLREYQELMN [KRT75_Y434] | inactive: 1.01
7 | GLGGVYGGASG [KRT8_Y54_G53V] | inactive: 0.604
8 | RQNQEYEILMD [KRT39_Y379_L383M] | inactive: 0.832
9 | GLRYGYGGLGG [KRTAP20-2_Y15_V17G] | inactive: 0.841
10 | ANAYIYVVQLP [L1CAM_Y420] | inactive: 1.44
11 | EVRAQYEEIAQ [KRT76_Y361] | inactive: 0.763
12 | RQNQEYEILLD [KRT39_Y379] | inactive: 0.431
13 | DRLANYLEKVR [KRT40_Y103_S102N] | inactive: 0.889
14 | GLSSAYGDLTS [KRT8_Y427_G429D] | inactive: 0.711
15 | SSSGGYGGGFG [KRT19_Y61_A60G_YF] | inactive: 0.689
16 | EAESWYQTKFE [KRT75_Y342_YF] | inactive: 1.1
17 | LLPNAYIYVVQ [L1CAM_Y418_A415P] | inactive: 0.772
18 | WYQTKYEELQI [KRT6B_Y360] | inactive: 1.14
19 | QEIATYRRLLE [KRT14_Y415] | inactive: 0.538

molecular target: SHP2 C-SH2 domain wild-type; experiment: as above; conditions: peptide library: pTyr-Var

Row | Binder | enrichment score
20 | EAEALYQTKFQ [KRT73_Y325] | inactive: 0.814
21 | WFQTKYEELQV [KRT6B_Y360_I365V_YF] | inactive: 1.57
22 | TTGGFYSYGGG [KRT24_Y120_A115T] | inactive: 0.717
23 | WYQTKYEELQV [KRT6B_Y360_I365V] | inactive: 1.73
24 | KTTGGYAGGLS [KRT8_Y419_S417G] | inactive: 0.675
25 | RLLREYQELMN [KRT75_Y434] | inactive: 1.06
26 | GLGGVYGGASG [KRT8_Y54_G53V] | inactive: 0.658
27 | RQNQEYEILMD [KRT39_Y379_L383M] | inactive: 0.728
28 | GLRYGYGGLGG [KRTAP20-2_Y15_V17G] | inactive: 0.786
29 | ANAYIYVVQLP [L1CAM_Y420] | inactive: 1.19
30 | EVRAQYEEIAQ [KRT76_Y361] | inactive: 0.879
31 | RQNQEYEILLD [KRT39_Y379] | inactive: 0.634
32 | DRLANYLEKVR [KRT40_Y103_S102N] | inactive: 0.794
33 | GLSSAYGDLTS [KRT8_Y427_G429D] | inactive: 0.594
34 | SSSGGYGGGFG [KRT19_Y61_A60G_YF] | inactive: 0.477
35 | EAESWYQTKFE [KRT75_Y342_YF] | inactive: 0.769
36 | LLPNAYIYVVQ [L1CAM_Y418_A415P] | inactive: 0.873
37 | WYQTKYEELQI [KRT6B_Y360] | inactive: 1.51
38 | QEIATYRRLLE [KRT14_Y415] | inactive: 0.483

molecular target: SHP2 N-SH2 domain L43F; experiment: as above; conditions: peptide library: pTyr-Var

Row | Binder | enrichment score
39 | EAEALYQTKFQ [KRT73_Y325] | inactive: 0.748
40 | WFQTKYEELQV [KRT6B_Y360_I365V_YF] | inactive: 1.94
41 | TTGGFYSYGGG [KRT24_Y120_A115T] | inactive: 0.795
42 | WYQTKYEELQV [KRT6B_Y360_I365V] | inactive: 1.71
43 | KTTGGYAGGLS [KRT8_Y419_S417G] | inactive: 0.453
44 | RLLREYQELMN [KRT75_Y434] | inactive: 1.19
45 | GLGGVYGGASG [KRT8_Y54_G53V] | inactive: 0.599
46 | RQNQEYEILMD [KRT39_Y379_L383M] | inactive: 0.693
47 | GLRYGYGGLGG [KRTAP20-2_Y15_V17G] | inactive: 0.88
48 | ANAYIYVVQLP [L1CAM_Y420] | inactive: 1.34
49 | EVRAQYEEIAQ [KRT76_Y361] | inactive: 0.803
50 | RQNQEYEILLD [KRT39_Y379] | inactive: 0.658
51 | DRLANYLEKVR [KRT40_Y103_S102N] | inactive: 0.802
52 | GLSSAYGDLTS [KRT8_Y427_G429D] | inactive: 0.652
53 | SSSGGYGGGFG [KRT19_Y61_A60G_YF] | inactive: 0.714
54 | EAESWYQTKFE [KRT75_Y342_YF] | inactive: 0.826
55 | LLPNAYIYVVQ [L1CAM_Y418_A415P] | inactive: 0.664
56 | WYQTKYEELQI [KRT6B_Y360] | inactive: 2.07
57 | QEIATYRRLLE [KRT14_Y415] | inactive: 0.542

molecular target: SHP2 N-SH2 domain T42A; experiment: as above; conditions: peptide library: pTyr-Var

Row | Binder | enrichment score
58 | EAEALYQTKFQ [KRT73_Y325] | inactive: 0.643
59 | WFQTKYEELQV [KRT6B_Y360_I365V_YF] | active: 9.38
60 | TTGGFYSYGGG [KRT24_Y120_A115T] | inactive: 0.862
61 | WYQTKYEELQV [KRT6B_Y360_I365V] | active: 5.59
62 | KTTGGYAGGLS [KRT8_Y419_S417G] | inactive: 0.618
63 | RLLREYQELMN [KRT75_Y434] | inactive: 0.951
64 | GLGGVYGGASG [KRT8_Y54_G53V] | inactive: 0.607
65 | RQNQEYEILMD [KRT39_Y379_L383M] | inactive: 0.648
66 | GLRYGYGGLGG [KRTAP20-2_Y15_V17G] | inactive: 0.659
67 | ANAYIYVVQLP [L1CAM_Y420] | inactive: 1.21
68 | EVRAQYEEIAQ [KRT76_Y361] | inactive: 1.39
69 | RQNQEYEILLD [KRT39_Y379] | inactive: 0.732
70 | DRLANYLEKVR [KRT40_Y103_S102N] | inactive: 0.703
71 | GLSSAYGDLTS [KRT8_Y427_G429D] | inactive: 0.454
72 | SSSGGYGGGFG [KRT19_Y61_A60G_YF] | inactive: 0.73
73 | EAESWYQTKFE [KRT75_Y342_YF] | inactive: 0.714
74 | LLPNAYIYVVQ [L1CAM_Y418_A415P] | inactive: 0.709
75 | WYQTKYEELQI [KRT6B_Y360] | active: 8.24
76 | QEIATYRRLLE [KRT14_Y415] | inactive: 0.464

molecular target: SHP2 N-SH2 domain T52S; experiment: as above; conditions: peptide library: pTyr-Var

Row | Binder | enrichment score
77 | EAEALYQTKFQ [KRT73_Y325] | inactive: 0.907
78 | WFQTKYEELQV [KRT6B_Y360_I365V_YF] | inactive: 2.02
79 | TTGGFYSYGGG [KRT24_Y120_A115T] | inactive: 0.627
80 | WYQTKYEELQV [KRT6B_Y360_I365V] | inactive: 1.54
81 | KTTGGYAGGLS [KRT8_Y419_S417G] | inactive: 0.633
82 | RLLREYQELMN [KRT75_Y434] | inactive: 1.37
83 | GLGGVYGGASG [KRT8_Y54_G53V] | inactive: 0.596
84 | RQNQEYEILMD [KRT39_Y379_L383M] | inactive: 1.26
85 | GLRYGYGGLGG [KRTAP20-2_Y15_V17G] | inactive: 0.846
86 | ANAYIYVVQLP [L1CAM_Y420] | inactive: 0.952
87 | EVRAQYEEIAQ [KRT76_Y361] | inactive: 0.623
88 | RQNQEYEILLD [KRT39_Y379] | inactive: 0.44
89 | DRLANYLEKVR [KRT40_Y103_S102N] | inactive: 0.762
90 | GLSSAYGDLTS [KRT8_Y427_G429D] | inactive: 0.638
91 | SSSGGYGGGFG [KRT19_Y61_A60G_YF] | inactive: 0.728
92 | EAESWYQTKFE [KRT75_Y342_YF] | inactive: 0.681
93 | LLPNAYIYVVQ [L1CAM_Y418_A415P] | inactive: 0.661
94 | WYQTKYEELQI [KRT6B_Y360] | inactive: 2.89
95 | QEIATYRRLLE [KRT14_Y415] | inactive: 0.475

molecular target: SHP2 N-SH2 domain wild-type; experiment: as above; conditions: peptide library: pTyr-Var

Row | Binder | enrichment score
96 | EAEALYQTKFQ [KRT73_Y325] | inactive: 0.864
97 | WFQTKYEELQV [KRT6B_Y360_I365V_YF] | inactive: 1.21
98 | TTGGFYSYGGG [KRT24_Y120_A115T] | inactive: 0.859
99 | WYQTKYEELQV [KRT6B_Y360_I365V] | inactive: 1.43
100 | KTTGGYAGGLS [KRT8_Y419_S417G] | inactive: 0.69
101 | RLLREYQELMN [KRT75_Y434] | inactive: 1.28
102 | GLGGVYGGASG [KRT8_Y54_G53V] | inactive: 1.05
103 | RQNQEYEILMD [KRT39_Y379_L383M] | inactive: 1.15
104 | GLRYGYGGLGG [KRTAP20-2_Y15_V17G] | inactive: 0.698
105 | ANAYIYVVQLP [L1CAM_Y420] | inactive: 1.28
106 | EVRAQYEEIAQ [KRT76_Y361] | inactive: 0.829
107 | RQNQEYEILLD [KRT39_Y379] | inactive: 0.578
108 | DRLANYLEKVR [KRT40_Y103_S102N] | inactive: 0.852
109 | GLSSAYGDLTS [KRT8_Y427_G429D] | inactive: 0.66
110 | SSSGGYGGGFG [KRT19_Y61_A60G_YF] | inactive: 0.585
111 | EAESWYQTKFE [KRT75_Y342_YF] | inactive: 1.22
112 | LLPNAYIYVVQ [L1CAM_Y418_A415P] | inactive: 0.876
113 | WYQTKYEELQI [KRT6B_Y360] | inactive: 1.46
114 | QEIATYRRLLE [KRT14_Y415] | inactive: 0.557
